Measurements from PubChem BioAssay (Tox21).
Several values for one entry are separate records, joined by “and”; a condition that tells them apart may be missing. Equal values may be shown once. This list was built around the results that the source calls inconclusive (neither active nor inactive); the mix of calls is not that of the screen. Where the call is inconclusive, the potency comes from a doubtful curve fit. Activity calls are given as the source filed them. Calls follow the shape of the dose curve; as a rule, active = well fitted cell-killing curve with a large enough effect in the repeat runs; inconclusive = weak or mixed curves, or effect the other way; inactive = flat fitted curve, though single readings scatter.

Assay: qHTS RealTime-Glo MT Cell Viability Assay in HEK293 cells - 8 hour (AID 1224887); also: nearly all actives have a fitted effect of over 50% in size
Conditions: RealTime-Glo luminescence; series mostly up to 76.8 µM
Summary of the method: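 qHTS format; HEK293 cells with NanoLuc/prosubstrate reagent, 37 C/5% CO2 for 5 h pre-dosing; compounds 23 nL in DMSO; luminescence at each time point reflects viable cells.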
Potency is read from the fitted curve at half-maximal effect; tags tell the direction and shape of the fitted curve.

Compound	Potency
Cc1cc2c(C(C)C)c(O)c(O)c(C=O)c2c(O)c1-c1c(C)cc2c(C(C)C)c(O)c(O)c(C=O)c2c1O	inconclusive: 21.3 µM [cytotoxic, partial curve]
CN(C)C(=S)SC(=S)N(C)C	inconclusive: 3.56 µM [cytotoxic, full curve] and inconclusive: 4.36 µM [cytotoxic, full curve]
O=S1(=O)CC(Cl)(Cl)C(Cl)(Cl)C1	active: 12.3 µM
CCc1cc(SCc2sc(-c3ccc(C(F)(F)F)cc3)nc2CN2CCN(c3ccc(OC)cc3)CC2)ccc1OCC(=O)O	inconclusive: 21.9 µM [cytotoxic, partial curve]
CCC(C)Nc1ccc(NC(C)CC)cc1 (stereo unspecified)	active: 4.99 µM
O=C(N[C@H](CO)[C@H](O)c1ccc([N+](=O)[O-])cc1)C(Cl)Cl	inconclusive: 61.6 µM [rising, single point]
Cc1cc(O)c2ccccc2c1O	active: 5.35 µM
CSc1ccc2c(c1)N(CCC1CCCCN1C)c1ccccc1S2 (stereo unspecified)	active: 19.4 µM and inconclusive: 26.8 µM [cytotoxic, single point]
CCCCCCCCCCn1cc[n+](CCCCCCCCCC)c1C	active: 21.9 µM
O=C1Cc2cc(CCN3CCN(c4nsc5ccccc45)CC3)c(Cl)cc2N1	inconclusive: 23.9 µM [cytotoxic, single point]
CCCCCCCCCCCCN(CCO)CCO	inconclusive: 48.8 µM [cytotoxic, single point]
